# Data reported in paper PMC4336329 (PLoS ONE, 2015).
# Among all 310,000 compounds or so, about 14,000 (4.5%) showed an effect of 50% or more. The effect is printed as a negative number. Some of the results follow.
# Molecular target: human ether-à-go-go-related gene (hERG) potassium channel (human, UniProt Q12809)
# Assay: primary screen, population patch clamp on CHO cells stably expressing hERG
# 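Further: peak tail current of the secondary pulse compared with the same well before compound.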
# human ether-à-go-go-related gene (hERG) potassium channel, sequence (Q12809 whole entry, looked up): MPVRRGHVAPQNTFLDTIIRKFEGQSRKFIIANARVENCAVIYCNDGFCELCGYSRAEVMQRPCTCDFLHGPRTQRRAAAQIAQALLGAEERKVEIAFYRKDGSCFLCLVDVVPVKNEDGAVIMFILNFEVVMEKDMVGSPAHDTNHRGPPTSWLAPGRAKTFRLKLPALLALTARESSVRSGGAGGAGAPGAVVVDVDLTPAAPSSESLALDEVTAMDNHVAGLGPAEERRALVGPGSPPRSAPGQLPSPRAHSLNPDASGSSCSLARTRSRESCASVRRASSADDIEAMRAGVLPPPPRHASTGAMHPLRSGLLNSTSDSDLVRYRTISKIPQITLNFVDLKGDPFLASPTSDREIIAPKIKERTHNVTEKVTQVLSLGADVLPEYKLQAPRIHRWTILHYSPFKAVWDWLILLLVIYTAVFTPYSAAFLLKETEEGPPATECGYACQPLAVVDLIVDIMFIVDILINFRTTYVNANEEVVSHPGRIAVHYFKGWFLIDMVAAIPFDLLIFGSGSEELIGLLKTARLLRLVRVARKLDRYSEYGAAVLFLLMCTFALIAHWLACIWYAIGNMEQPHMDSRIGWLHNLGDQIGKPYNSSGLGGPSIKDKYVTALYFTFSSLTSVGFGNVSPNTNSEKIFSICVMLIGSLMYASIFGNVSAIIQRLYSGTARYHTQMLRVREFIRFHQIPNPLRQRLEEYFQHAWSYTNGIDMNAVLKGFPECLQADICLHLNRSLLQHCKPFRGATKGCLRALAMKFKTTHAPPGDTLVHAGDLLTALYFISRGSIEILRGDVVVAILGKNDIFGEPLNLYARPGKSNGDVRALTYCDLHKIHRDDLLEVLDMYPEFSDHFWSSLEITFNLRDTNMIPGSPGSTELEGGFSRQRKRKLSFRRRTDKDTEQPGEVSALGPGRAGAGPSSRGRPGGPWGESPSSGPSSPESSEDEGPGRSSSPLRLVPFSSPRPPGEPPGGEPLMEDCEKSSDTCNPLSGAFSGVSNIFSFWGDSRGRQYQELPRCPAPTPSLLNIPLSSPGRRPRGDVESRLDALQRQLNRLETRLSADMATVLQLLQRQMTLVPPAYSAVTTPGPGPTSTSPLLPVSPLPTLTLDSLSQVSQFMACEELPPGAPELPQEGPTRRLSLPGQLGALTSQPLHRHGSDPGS
row,Structure (SMILES),"hERG current change (%, negative = inhibition) at 10uM [%]"
1,O=C(N/N=C/c1ccc2c(c1)OCO2)c1cccc(NC(=O)c2ccccc2Cl)c1,4.03
2,CCc1ccc(NC(=O)CSc2nnc(Cc3cccn3C)n2-c2ccc(F)cc2)cc1,-34.3
3,O=C(Nc1ccccc1[N+](=O)[O-])C1=C(O)CCn2c1nc1ccccc12,27.6
4,CCOC(=O)C1CCN(C(=O)CNC(=O)c2nn(-c3ccc(OC)cc3OC)c(=O)c3ccccc23)CC1,22.8
5,COc1ccc(OC)c(NC(=O)CN(C)CCOc2ccc(Br)cc2)c1,-4.57
6,Cc1c(NC(=O)CN2C(=O)NC3(CCCC3)C2=O)c(=O)n(-c2ccccc2)n1C,17.1
7,O=C(COC(=O)/C=C/c1ccco1)NCc1ccc(Cl)cc1,-5.39
8,O=C(CSc1nnc(Nc2ccccc2F)s1)c1cc2ccccc2o1,11
9,COc1ccc(Cl)cc1N(C)C(=O)CCc1nc(-c2ccc(C)cc2)no1,-10.9
10,Cc1c(Cl)cccc1NC(=S)NCCc1ccc(C(F)(F)F)cc1,10.3
11,COc1ccc(Oc2nc(C)cc(C)c2S(=O)(=O)c2ccc(C)cc2)cc1,-12.2
12,N#Cc1c(NC(=S)NC(=O)C2CCCC2)sc2c1CCCCC2,12.7
13,CSc1nnc(C)c(=O)n1COC(=O)COc1ccccc1F,14.9
14,O=C(COc1cccc2cccnc12)Nc1cccc(S(=O)(=O)N2CCCC2)c1,-36.4
15,CC/C(=N\NC(=O)CSCc1ccccc1Cl)c1ccc2c(c1)OCCO2,13
16,C/C(CCc1ccccc1)=N\NC(=O)c1ccccc1[N+](=O)[O-],21.2
17,COCCN(C(=O)COC(=O)Cc1coc2cc(C)ccc12)c1c(N)n(Cc2ccccc2)c(=O)[nH]c1=O,-13.3
18,COc1ccc(S(=O)(=O)N2CCCC(C(=O)NCc3ccccn3)C2)cc1Cl (centres unmarked),-15.1
19,CC(C)n1nnnc1SCC(=O)NCc1ccc2c(c1)OCO2,4.63
20,CN1C(C(=O)NCc2cccc(Br)c2)CC2Cn3c(nc4cc5ccccc5cc43)C21 (centres unmarked),-62
21,Cc1ccc(CNC(=O)c2cc3c(=O)n(C)c4ccccc4c3n2C)o1,-7.44
22,CN(Cc1cccc(Cl)c1Cl)C(=O)c1cccc(S(=O)(=O)N2CCN(Cc3ccccc3)CC2)c1,5.42
23,Cc1ccc(S(=O)(=O)N2CCCCC2)c2nsnc12,-54.9
